Data published in the supplement of paper PMC3334620.
The full ranking holds about 33,000 sequences; the median of “E-score (-0.5 to 0.5)” is about -0.021, and the highest 2% start at about 0.32. Some of the results follow.

molecular target: T1, Zap1 (UniProt P47043); test: PBM E-score (8-mer binding enrichment) (E-score (-0.5 to 0.5)); higher = stronger / more preferred TF binding; most listed sequences are background and not binding sites; conditions: protein concentration: 200 nM; construct: GST-full length
T1 sequence: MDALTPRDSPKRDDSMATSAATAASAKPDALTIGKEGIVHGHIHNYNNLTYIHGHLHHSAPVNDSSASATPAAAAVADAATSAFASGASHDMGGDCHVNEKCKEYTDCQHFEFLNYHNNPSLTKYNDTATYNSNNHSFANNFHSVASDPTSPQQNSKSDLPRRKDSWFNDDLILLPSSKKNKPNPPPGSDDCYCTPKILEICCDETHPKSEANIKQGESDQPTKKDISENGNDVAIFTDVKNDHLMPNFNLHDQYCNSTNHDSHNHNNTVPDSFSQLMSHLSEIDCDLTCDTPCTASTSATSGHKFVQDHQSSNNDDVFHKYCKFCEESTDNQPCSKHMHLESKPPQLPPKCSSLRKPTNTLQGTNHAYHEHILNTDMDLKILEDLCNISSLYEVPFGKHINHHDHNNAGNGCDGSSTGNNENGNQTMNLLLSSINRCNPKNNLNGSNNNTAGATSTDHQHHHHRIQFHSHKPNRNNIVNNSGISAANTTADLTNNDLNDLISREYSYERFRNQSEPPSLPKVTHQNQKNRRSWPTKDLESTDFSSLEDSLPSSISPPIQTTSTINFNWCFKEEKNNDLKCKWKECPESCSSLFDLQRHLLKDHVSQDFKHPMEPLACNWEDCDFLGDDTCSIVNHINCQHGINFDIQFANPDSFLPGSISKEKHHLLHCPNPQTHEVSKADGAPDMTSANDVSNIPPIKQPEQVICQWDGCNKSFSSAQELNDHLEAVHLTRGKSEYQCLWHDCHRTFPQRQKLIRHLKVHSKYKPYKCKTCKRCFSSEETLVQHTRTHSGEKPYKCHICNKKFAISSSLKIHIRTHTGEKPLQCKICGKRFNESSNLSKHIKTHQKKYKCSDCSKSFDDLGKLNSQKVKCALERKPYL
Outline: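 Yeast transcription factors, full-length or as DNA-binding domains, were expressed with a GST tag using PURExpress in vitro transcription/translation. At about 100-200 nM they were applied to universal all-10-mer Agilent arrays, double-stranded by primer extension on fresh or once-stripped slides. Fluorescent anti-GST detected bound protein, and masliner normalised the scans. E-scores for ungapped eight-base words, pooled with reverse complements, came from the Universal PBM Analysis Suite.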

First: GACAGTCC
Second: GTCAAAAA
The “PBM E-score” value of the first is lower: -0.0847 for the first, 0.0924 for the second.

Going from CTTCGAGA to CCTAGTCA, the “PBM E-score” value falls from 0.0122 to -0.254.

Going from AAAGTGAC to ACTGGCCT, the “PBM E-score” value falls from 0.0397 to -0.083.

Compared with TAAATATA, GCTTGGCA is lower in “PBM E-score” value: 0.231 for the first, -0.0928 for the second.

Compared with CGCTGATA, ACGGCTGG is higher in “PBM E-score” value: -0.172 for the first, -0.0605 for the second.

Going from ACAGGCGG to AGGTACGG, the “PBM E-score” value rises from -0.272 to -0.139.

Going from ATGACATG to CAGAGTAG, the “PBM E-score” value rises from -0.142 to 0.0171.

Compared with ATAACTTA, CCCCGCCG is lower in “PBM E-score” value: 0.231 for the first, -0.00305 for the second.

First: GAGTTGTA
Second: CATTAACA
The “PBM E-score” value of the first is lower: 0.0387 for the first, 0.0919 for the second.

Compared with AGTGGAAT, CGACTGAG is lower in “PBM E-score” value: 0.0649 for the first, -0.072 for the second.

First: CATCAGTA
Second: AGCTGAAT
The “PBM E-score” value of the first is higher: 0.058 for the first, -0.0562 for the second.

Compared with CCTAACGC, AACCGAGG is lower in “PBM E-score” value: 0.0627 for the first, -0.0131 for the second.

First: CGTTCCTC
Second: CACTGTTA
The “PBM E-score” value of the first is lower: -0.248 for the first, -0.2 for the second.

Going from CATTGTAA to ACCGCTGC, the “PBM E-score” value falls from 0.0822 to -0.0569.

Going from CATCATGA to ACGACTCC, the “PBM E-score” value falls from 0.0679 to -0.141.

Compared with AACCGCAG, ATAACCTG is higher in “PBM E-score” value: 0.126 for the first, 0.412 for the second.

First: ATGATTGA
Second: ACAGCTGC
The “PBM E-score” value of the first is higher: 0.129 for the first, -0.109 for the second.

Compared with CTGACCTA, GGAGGGCC is lower in “PBM E-score” value: 0.0234 for the first, -0.252 for the second.

Going from ACCACACA to CCACGCAC, the “PBM E-score” value falls from 0.102 to -0.0658.

Compared with ATATGGTC, ATCTGCCA is lower in “PBM E-score” value: 0.128 for the first, -0.167 for the second.

Compared with CTCGCTTA, AAATTGTT is higher in “PBM E-score” value: -0.0929 for the first, 0.0686 for the second.

First: AAGCGGGC
Second: CCTATCGC
The “PBM E-score” value of the first is lower: -0.335 for the first, -0.22 for the second.

Compared with ATACCTCG, AGACGGCA is lower in “PBM E-score” value: 0.338 for the first, -0.132 for the second.

First: ATGGCGCC
Second: AATCGCGA
The “PBM E-score” value of the first is lower: -0.166 for the first, 0.141 for the second.

First: CCGATCCG
Second: TATGTCAA
The “PBM E-score” value of the first is lower: -0.27 for the first, 0.152 for the second.

First: AAGTCGCA
Second: CCATAAGC
The “PBM E-score” value of the first is higher: 0.0155 for the first, -0.0442 for the second.

First: CAGCACTG
Second: GGCAAGGA
The “PBM E-score” value of the first is lower: -0.227 for the first, -0.219 for the second.

Going from CCGGTAAA to AAGAGAGC, the “PBM E-score” value falls from 0.107 to -0.228.

Compared with ATAGATAA, ACTCGACC is lower in “PBM E-score” value: 0.0487 for the first, -0.0836 for the second.

Compared with CACTGTAG, AGTACCGA is lower in “PBM E-score” value: 0.065 for the first, -0.0924 for the second.

First: AGAGCGCC
Second: CCACAGGC
The “PBM E-score” value of the first is higher: -0.0379 for the first, -0.274 for the second.

Compared with GCCACAAC, AAGCCCGC is lower in “PBM E-score” value: 0.212 for the first, -0.116 for the second.

Going from AGCCATCG to GACTGATC, the “PBM E-score” value falls from -0.168 to -0.224.

First: GATTGACC
Second: ACGAGCCA
The “PBM E-score” value of the first is higher: 0.0347 for the first, -0.11 for the second.

Compared with AGGGTCTG, GATTGACA is lower in “PBM E-score” value: 0.228 for the first, -0.0929 for the second.

Compared with AGTCTAAT, CCTGTGCA is higher in “PBM E-score” value: -0.0605 for the first, -0.0569 for the second.

Going from CAGACCAG to CCAAAGAA, the “PBM E-score” value rises from 0.0109 to 0.139.

Going from AGACATTC to CATCGATA, the “PBM E-score” value rises from -0.164 to 0.0882.

Compared with ACACCCCC, CGCCGACG is lower in “PBM E-score” value: -0.173 for the first, -0.181 for the second.

Going from GTGGGAAC to CAGCTTCC, the “PBM E-score” value falls from -0.0242 to -0.175.

Compared with GGCGCCAC, TGGATACA is higher in “PBM E-score” value: -0.238 for the first, -0.101 for the second.

Going from CATCGGGC to AAAGTAAG, the “PBM E-score” value rises from -0.285 to -0.08.

First: ACGACTAA
Second: CTAAACAC
The “PBM E-score” value of the first is lower: 0.0677 for the first, 0.088 for the second.

First: GCCAGCAA
Second: CCCGTTGA
The “PBM E-score” value of the first is lower: -0.12 for the first, 0.0244 for the second.

First: GGCGGACC
Second: AGGGATCG
The “PBM E-score” value of the first is higher: 0.0257 for the first, -0.0717 for the second.

First: CGTGAGGC
Second: CAAGGCCA
The “PBM E-score” value of the first is lower: -0.0791 for the first, 0.0128 for the second.

Going from CACCTCAG to CTCATCCC, the “PBM E-score” value falls from -0.0156 to -0.236.

Going from ACGACTAT to GGCGGGAA, the “PBM E-score” value falls from 0.0329 to -0.0633.

First: ACCGCCCT
Second: CAGATTGC
The “PBM E-score” value of the first is higher: -0.0715 for the first, -0.136 for the second.

First: ATTTAGTC
Second: GCCAACTA
The “PBM E-score” value of the first is higher: 0.0804 for the first, -0.0645 for the second.

Going from CGAAAAGC to TGTCGTAA, the “PBM E-score” value rises from -0.167 to 0.0637.

Going from CCATTCGC to CAGAGGAA, the “PBM E-score” value rises from -0.105 to -0.0216.

First: CCCGTGTC
Second: TCTAGGCA
The “PBM E-score” value of the first is lower: -0.137 for the first, -0.0489 for the second.

First: CTGTCTAA
Second: CACGGTCG
The “PBM E-score” value of the first is higher: -0.00329 for the first, -0.213 for the second.

Going from TCCAAGCA to GATTCCGC, the “PBM E-score” value rises from -0.235 to 0.0045.

Going from GGCTTTTA to CGGTACCG, the “PBM E-score” value rises from -0.265 to 0.38.

Compared with ACGGTGGG, ATCGTAAC is higher in “PBM E-score” value: 0.0873 for the first, 0.291 for the second.

First: GCTGGTCC
Second: AATATGTC
The “PBM E-score” value of the first is lower: -0.104 for the first, -0.00754 for the second.

First: ACTTGTAA
Second: AAATAAGC
The “PBM E-score” value of the first is higher: 0.0314 for the first, -0.0445 for the second.

First: CGCGAGGA
Second: TGACAACA
The “PBM E-score” value of the first is lower: -0.0975 for the first, -0.0451 for the second.

Compared with ACTAGGCC, AGTAAAGG is higher in “PBM E-score” value: -0.145 for the first, 0.132 for the second.

First: AGAGGTGG
Second: GAGCAGAC
The “PBM E-score” value of the first is higher: -0.0484 for the first, -0.131 for the second.

Going from CACGCGAG to CACATGCC, the “PBM E-score” value falls from 0.14 to -0.165.

Going from ACTCGCAT to CTTGGGGA, the “PBM E-score” value rises from -0.0233 to 0.0156.

First: GTTAGATA
Second: CCGTAAGG
The “PBM E-score” value of the first is lower: 0.123 for the first, 0.149 for the second.

Going from CGCCTACG to ACTGAATG, the “PBM E-score” value rises from -0.23 to -0.0608.

Going from GGAACCTA to AATAATCT, the “PBM E-score” value falls from 0.146 to 0.0517.

Going from ATTAGGCG to TGACCAAA, the “PBM E-score” value rises from -0.0264 to 0.28.

Compared with ATGAACGA, CACCTCAA is higher in “PBM E-score” value: -0.0648 for the first, 0.174 for the second.

Compared with CCCTAGGG, ATGACATC is lower in “PBM E-score” value: 0.41 for the first, 0.089 for the second.

First: AAAGACCA
Second: TTCAGGAA
The “PBM E-score” value of the first is higher: -0.0435 for the first, -0.0901 for the second.

Compared with CTTGCCAA, CAGCTCCC is lower in “PBM E-score” value: 0.00969 for the first, -0.42 for the second.

First: GGTGACGA
Second: GAACCTCC
The “PBM E-score” value of the first is higher: 0.145 for the first, 0.038 for the second.

Compared with ATTAAACA, AATATCTA is lower in “PBM E-score” value: 0.114 for the first, -0.239 for the second.

First: CACTACAC
Second: TAACCGGA
The “PBM E-score” value of the first is lower: 0.0116 for the first, 0.364 for the second.

Going from CTTTGGCC to CGTTTGGA, the “PBM E-score” value rises from -0.065 to 0.0241.

Going from CGGGCATA to AAGCTGCG, the “PBM E-score” value falls from -0.0176 to -0.191.

First: TCAACCAA
Second: AATGAGAC
The “PBM E-score” value of the first is higher: 0.118 for the first, -0.0476 for the second.

Going from TGATGTAA to ACCTTGAT, the “PBM E-score” value rises from -0.049 to 0.325.

Going from GTGGTTCA to GAGTAAAC, the “PBM E-score” value rises from 0.0364 to 0.0886.

Compared with ATTACGTA, AGCTCGGG is lower in “PBM E-score” value: 0.0941 for the first, -0.123 for the second.

Going from GTTAGAAC to AATCAGTA, the “PBM E-score” value falls from 0.154 to -0.0224.

First: GCGATGTA
Second: AATGCTTC
The “PBM E-score” value of the first is higher: -0.00072 for the first, -0.148 for the second.

Compared with AGTACCAG, GGACGTGA is lower in “PBM E-score” value: 0.173 for the first, -0.201 for the second.

Going from ACCTCTGC to AGTCTGTG, the “PBM E-score” value falls from -0.0418 to -0.159.

First: AGCATTCC
Second: CAAACCTA
The “PBM E-score” value of the first is lower: -0.228 for the first, 0.166 for the second.
